The source of these data is article PMC4336329 (PLoS ONE, 2015).

SMILES strings stand for the structures. The whole screen tested about 310,000 compounds, of which about 14,000 (4.5%) showed an effect of 50% or more. The effect is printed as a negative number. The list shows a part of the results.
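Note: peak tail current of the secondary pulse compared with the same well before compound.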

Sequence of human ether-à-go-go-related gene (hERG) potassium channel (Q12809 whole entry, looked up): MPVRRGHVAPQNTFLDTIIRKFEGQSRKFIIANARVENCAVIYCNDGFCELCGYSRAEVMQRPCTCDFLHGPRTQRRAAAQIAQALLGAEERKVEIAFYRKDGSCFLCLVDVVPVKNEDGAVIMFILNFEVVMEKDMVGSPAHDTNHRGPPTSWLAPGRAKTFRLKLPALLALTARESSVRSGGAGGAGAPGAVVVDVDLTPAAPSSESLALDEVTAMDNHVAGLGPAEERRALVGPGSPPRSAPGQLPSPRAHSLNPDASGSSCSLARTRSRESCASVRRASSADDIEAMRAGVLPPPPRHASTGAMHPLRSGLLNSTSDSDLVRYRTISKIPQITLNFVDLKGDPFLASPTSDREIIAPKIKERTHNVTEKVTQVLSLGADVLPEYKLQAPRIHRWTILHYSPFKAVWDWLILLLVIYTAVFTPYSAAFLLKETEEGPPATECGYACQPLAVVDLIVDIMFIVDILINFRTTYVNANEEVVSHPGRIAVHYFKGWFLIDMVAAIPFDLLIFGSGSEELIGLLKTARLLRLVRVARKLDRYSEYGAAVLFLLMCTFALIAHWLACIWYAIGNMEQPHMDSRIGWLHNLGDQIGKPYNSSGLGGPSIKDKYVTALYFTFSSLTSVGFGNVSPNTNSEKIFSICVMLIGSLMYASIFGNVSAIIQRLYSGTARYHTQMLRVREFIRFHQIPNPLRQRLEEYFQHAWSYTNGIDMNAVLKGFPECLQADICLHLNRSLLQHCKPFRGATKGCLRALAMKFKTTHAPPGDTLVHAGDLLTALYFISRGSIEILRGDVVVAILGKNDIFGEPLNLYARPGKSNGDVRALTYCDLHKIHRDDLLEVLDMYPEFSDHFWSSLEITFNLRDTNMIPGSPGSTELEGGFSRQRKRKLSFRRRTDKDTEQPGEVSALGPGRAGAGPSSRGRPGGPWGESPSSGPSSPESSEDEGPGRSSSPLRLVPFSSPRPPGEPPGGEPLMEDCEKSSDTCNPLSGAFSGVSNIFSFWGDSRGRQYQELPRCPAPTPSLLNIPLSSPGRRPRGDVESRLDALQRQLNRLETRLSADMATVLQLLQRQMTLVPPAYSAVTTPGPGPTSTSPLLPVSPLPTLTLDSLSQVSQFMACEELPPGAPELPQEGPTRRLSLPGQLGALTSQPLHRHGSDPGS

This experiment concerns the target human ether-à-go-go-related gene (hERG) potassium channel (human, UniProt Q12809). Kind of experiment: primary screen, population patch clamp on CHO cells stably expressing hERG.
Turning to `CN(C)S(=O)(=O)c1cccc(NC(=O)c2cccc(S(=O)(=O)N3CCc4ccccc43)c2)c1`, the “hERG current change (%, negative = inhibition) at 10uM” value is -4.62%. In the case of `CC(NC(=O)Nc1ccc(Cl)cc1)C(c1cccs1)N1CCOCC1` (stereo not drawn) it was -8.08%; in that of `COc1ccc(N=Nc2cc(C)c(O)c(CN3CCCCC3)c2)cc1`, 1.85%; in that of `CC(C)(O)[C@@H]1Cc2c(ccc3ccc(=O)oc23)O1`, 6.69%. In the case of `COc1ccc(C(c2nnnn2C2CCCC2)N2CCN(C(=O)c3ccco3)CC2)cc1OC.Cl` (stereo not drawn) it was -32.8%; in that of `CCC(=O)Nc1ncc2c(n1)CC(c1ccco1)CC2=O` (stereo not drawn), 7.92%. The value for `CC(=O)Nc1ccc(OCC(=O)N(CC(C)C)C2CCS(=O)(=O)C2)cc1` (stereo not drawn) was 10.5%; that for `CC12CN3CC(C)(CN(C1)C3c1ccc(Br)cc1)C2=O` (stereo not drawn) was 0.611%; that for `CCCCn1c(N)c(N(CCOC)C(=O)COc2ccc(C(C)=O)cc2)c(=O)[nH]c1=O` was 21%. For `Cc1ccc(N2C(=S)N=C(Nc3ccccc3C)C23CCOC(C)(C)C3)cc1` (stereo not drawn), the “hERG current change (%, negative = inhibition) at 10uM” value is listed as -2.58%.

As to `COc1ccccc1CNC(=O)COC(=O)c1cccc(-n2cnnn2)c1`, the “hERG current change (%, negative = inhibition) at 10uM” value was -7.25%. Turning to `COC(=O)c1ccc(/C=N/NC(=S)NCCN2CCOCC2)cc1`, the “hERG current change (%, negative = inhibition) at 10uM” value is -0.156%.

As to `Fc1ccc(-c2nc3c(Cl)cc(C(F)(F)F)cn3c2Cl)cc1`, the “hERG current change (%, negative = inhibition) at 10uM” value came out at 6.91%. In the case of `CCOC(=O)c1cc2c(ccn2C)n1Cc1cc(C)ccc1C` it was 13.3%. The value for `CC1O[C@@H](OCC2O[C@@H](Oc3cc(O)c4c(c3)OC(c3ccc(O)cc3)CC4=O)[C@H](O)[C@@H](O)[C@@H]2O)[C@H](O)[C@H](O)[C@H]1O` (stereo partly drawn) was 1.53%; that for `O=C1CC(c2ccccc2)CC(O)=C1C=NCCN1CCN(Cc2ccccc2)CC1` (stereo not drawn) was -63.1%; that for `CCOC(=O)C1=C(C)OC(N)=C(C#N)C1c1cccc(C)c1` (stereo not drawn) was -3.78%.

With `Cc1cc(OCc2cc(C(=O)N(C)CCc3cnn(C)c3)no2)cc(C)c1Cl`, the “hERG current change (%, negative = inhibition) at 10uM” value is -38.9%. In the case of `COc1ccc(OC)c(C2CC(=O)Nc3cc(OC)c(OC)c(OC)c32)c1` (stereo not drawn) it was 5.91%.

In the case of `COCCCn1c(=NC(C)=O)c(C#N)cc2c(=O)n3cccc(C)c3nc21`, the “hERG current change (%, negative = inhibition) at 10uM” value is -49.7%.

Turning to `COc1cc2c(cc1OC)C(c1ccc(O)cc1)NCC2` (stereo not drawn), the “hERG current change (%, negative = inhibition) at 10uM” value turned out to be 19.6%. As to `O=C(CCC(=O)N1CCCCCC1)Nc1ccc([N+](=O)[O-])cc1`, the “hERG current change (%, negative = inhibition) at 10uM” value is recorded as -13.5%. The value for `COc1cc(OC)c2ccc(=O)oc2c1C(CC(=O)N1CCCC1)c1ccc2c(c1)OCO2` (stereo not drawn) was -9.26%; that for `CN(c1ccccc1)S(=O)(=O)c1cccc(NC(=O)CSc2nncn2C)c1` was -5.44%; that for `Cc1nn(C)cc1/C=N/O` was -2.18%. In the case of `O=C(O)C(=O)O.c1ccc(COc2cccc(CN3CCc4ccccc4C3)c2)cc1`, the “hERG current change (%, negative = inhibition) at 10uM” value worked out at 9.46%. The value for `Cc1cc(C(=O)NCc2cccnc2)cs1` was -12.2%; that for `CCOc1cc(CNCCCN2CCOCC2)cc(Br)c1OCc1ccccc1Cl.Cl` was -64.9%; that for `Cc1nc2c(-c3ccccc3)c(C)nn2c(C)c1CCC(=O)NCc1ccco1` was -29.9%. Regarding `CCCCN(CCCC)C(=O)CSc1nnc(-c2cc(OC)c(OC)c(OC)c2)o1`, the “hERG current change (%, negative = inhibition) at 10uM” value is listed as -58.5%.

As to `O=C(CN1CC(c2ccccc2)CC1=O)Nc1ccc2c(c1)OCO2` (stereo not drawn), the “hERG current change (%, negative = inhibition) at 10uM” value came to 1.05%. The value for `Cc1ccc(N2CCN(C(=O)c3nn(C)c4c3CS(=O)(=O)c3ccccc3-4)CC2)c(C)c1` was -3%.

For `CCOC(=O)C(C)Sc1nc(C2CC2)cc(C(F)(F)F)c1C#N` (stereo not drawn), the “hERG current change (%, negative = inhibition) at 10uM” value is recorded as 5.04%. As for `COc1ccc(C(=O)OC(C(=O)c2ccc(C)cc2)c2ccccc2)cc1` (stereo not drawn), the “hERG current change (%, negative = inhibition) at 10uM” value is -0.636%. Consider `CCN(CC)CCCNC(=O)c1ccc(CS(=O)(=O)c2ccccc2OC)o1`, for which the “hERG current change (%, negative = inhibition) at 10uM” value was 16.3%. In the case of `CCOC(=O)c1ccc(NC(=O)c2nc[nH]c2C(=O)N[C@@H](Cc2ccccc2)C(=O)OC(C)(C)C)cc1` it was 0.506%; in that of `CN(C(=S)NC(=O)C1(C)CC1(Cl)Cl)c1ccccc1` (stereo not drawn), 16.7%.

As for `O=C(Nc1ccc(Nc2ccccc2)cc1)c1cc([N+](=O)[O-])ccc1Cl`, the “hERG current change (%, negative = inhibition) at 10uM” value was 11.2%. With `Cc1cc(NS(=O)(=O)c2ccc(NS(=O)(=O)c3cc(C)c(Cl)cc3Cl)cc2)no1`, the “hERG current change (%, negative = inhibition) at 10uM” value amounted to 9.82%.

Take `COc1cc(/C=C/C(=O)c2ccc(NS(=O)(=O)c3ccc(C)cc3)cc2)cc(OC)c1O`: the “hERG current change (%, negative = inhibition) at 10uM” value is on record as -0.984%. Turning to `Cc1ccc2c(c1)COc1c3ccc(C(=O)NC(C)C)cc3nn1-2`, the “hERG current change (%, negative = inhibition) at 10uM” value is listed as 6.46%.

Turning to `COc1ccccc1NC(=O)N(CCCN1CCOCC1)Cc1cc2cc3c(cc2[nH]c1=O)OCO3`, the “hERG current change (%, negative = inhibition) at 10uM” value is -11.4%.
